# Measured values: the supplement of paper PMC8728848
# The list shows a part of the results.
# B1: PA-IL (Pseudomonas aeruginosa), Q05097 (protein)
# chain: MAWKGEVLANNEAGQVTSIIYNPGDVITIVAAGWASYGPTQKWGPQGDREHPDQGLICHDAFCGALVMKIGNSGTIPVNTGLFRWVAPNNVQGAITLIYNDVPGTYGNNSGSFSVNIGKDQS
# Experiments:
# Test in all cases: glycan array binding signal (z-score within array); higher = stronger binding
# Conditions in all cases: glycan notation: IUPAC condensed, linker removed
# [1] = molecular target: Neu5Ac(a2-3)Gal(b1-4)GlcNAc(b1-2)Man(a1-3)[GlcNAc(b1-2)Man(b1-4)GlcNAc(b1-2)Man(a1-6)]Man(b1-4)GlcNAc(b1-4)GlcNAc
# How it was run: (§1)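 The binding signal is a Z-score computed within each array. Data were drawn from 3228 arrays in the Consortium for Functional Glycomics database, restricted to those with a known protein sequence. Scores were averaged over arrays of the same protein sequence at different concentrations or buffers, and over linkers, and negative values can be taken as non-binding.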
# [2] = molecular target: Neu5Ac(a2-3)Gal(b1-4)GlcNAc(b1-2)Man(a1-3)[GlcNAc(b1-4)][Neu5Ac(a2-3)Gal(b1-4)GlcNAc(b1-2)Man(a1-6)]Man(b1-4)GlcNAc(b1-4)GlcNAc
# How it was run: as §1
# [3] = molecular target: Neu5Ac(a2-3)Gal(b1-4)GlcNAc(b1-2)Man(a1-3)[Neu5Ac(a2-3)Gal(b1-4)GlcNAc(b1-2)Man(a1-6)]Man(b1-4)GlcNAc(b1-4)GlcNAc
# How it was run: as §1
# [4] = molecular target: Neu5Ac(a2-3)Gal(b1-4)GlcNAc(b1-2)Man(a1-3)[Neu5Ac(a2-3)Gal(b1-4)GlcNAc(b1-2)Man(a1-6)]Man(b1-4)GlcNAc(b1-4)[Fuc(a1-6)]GlcNAc
# How it was run: as §1
# [5] = molecular target: Neu5Ac(a2-3)Gal(b1-4)GlcNAc(b1-2)Man(a1-3)[Neu5Ac(a2-6)Gal(b1-4)GlcNAc(b1-2)Man(a1-6)]Man(b1-4)GlcNAc(b1-4)GlcNAc
# How it was run: as §1
# [6] = molecular target: Neu5Ac(a2-3)Gal(b1-4)GlcNAc(b1-2)[Neu5Ac(a2-3)Gal(b1-4)GlcNAc(b1-4)]Man(a1-3)[GlcNAc(b1-4)][Neu5Ac(a2-3)Gal(b1-4)GlcNAc(b1-2)[Neu5Ac(a2-3)Gal(b1-4)GlcNAc(b1-6)]Man(a1-6)]Man(b1-4)GlcNAc(b1-4)GlcNAc
# How it was run: as §1
# [7] = molecular target: Neu5Ac(a2-3)Gal(b1-4)GlcNAc(b1-2)[Neu5Ac(a2-3)Gal(b1-4)GlcNAc(b1-4)]Man(a1-3)[GlcNAc(b1-4)][Neu5Ac(a2-3)Gal(b1-4)GlcNAc(b1-4)Man(a1-6)]Man(b1-4)GlcNAc(b1-4)GlcNAc
# How it was run: as §1
# [8] = molecular target: Neu5Ac(a2-3)Gal(b1-4)GlcNAc(b1-2)[Neu5Ac(a2-3)Gal(b1-4)GlcNAc(b1-6)]Man(a1-6)[Neu5Ac(a2-3)Gal(b1-4)GlcNAc(b1-2)Man(a1-3)]Man(b1-4)GlcNAc(b1-4)GlcNAc
# How it was run: as §1
# [9] = molecular target: Neu5Ac(a2-3)Gal(b1-4)GlcNAc(b1-2)[Neu5Ac(a2-3)Gal(b1-4)GlcNAc(b1-6)]Man(a1-6)[Neu5Ac(a2-3)Gal(b1-4)GlcNAc(b1-2)Man(a1-3)][GlcNAc(b1-4)]Man(b1-4)GlcNAc(b1-4)GlcNAc
# How it was run: as §1
# [10] = molecular target: Neu5Ac(a2-3)Gal(b1-4)GlcNAc(b1-3)Gal
# How it was run: as §1
# [11] = molecular target: Neu5Ac(a2-3)Gal(b1-4)GlcNAc(b1-3)Gal(b1-3)GlcNAc
# How it was run: as §1
# [12] = molecular target: Neu5Ac(a2-3)Gal(b1-4)GlcNAc(b1-3)Gal(b1-4)GlcNAc
# How it was run: as §1
# [13] = molecular target: Neu5Ac(a2-3)Gal(b1-4)GlcNAc(b1-3)Gal(b1-4)GlcNAc(b1-2)Man(a1-3)[Neu5Ac(a2-3)Gal(b1-4)GlcNAc(b1-3)Gal(b1-4)GlcNAc(b1-2)Man(a1-6)]Man(b1-4)GlcNAc(b1-4)GlcNAc
# How it was run: as §1
# [14] = molecular target: Neu5Ac(a2-3)Gal(b1-4)GlcNAc(b1-3)Gal(b1-4)GlcNAc(b1-3)Gal(b1-4)GlcNAc
# How it was run: as §1
# [15] = molecular target: Neu5Ac(a2-3)Gal(b1-4)GlcNAc(b1-3)Gal(b1-4)GlcNAc(b1-3)Gal(b1-4)GlcNAc(b1-2)Man(a1-3)[Neu5Ac(a2-3)Gal(b1-4)GlcNAc(b1-3)Gal(b1-4)GlcNAc(b1-3)Gal(b1-4)GlcNAc(b1-2)Man(a1-6)]GalNAc
# How it was run: as §1
# [16] = molecular target: Neu5Ac(a2-3)Gal(b1-4)GlcNAc(b1-3)Gal(b1-4)GlcNAc(b1-3)GalNAc
# How it was run: as §1
# [17] = molecular target: Neu5Ac(a2-3)Gal(b1-4)GlcNAc(b1-3)Gal(b1-4)GlcNAc(b1-3)[Neu5Ac(a2-3)Gal(b1-4)GlcNAc(b1-3)Gal(b1-4)GlcNAc(b1-6)]GalNAc
# How it was run: as §1
# [18] = molecular target: Neu5Ac(a2-3)Gal(b1-4)GlcNAc(b1-3)Gal(b1-4)GlcNAc(b1-6)[Gal(b1-3)]GalNAc
# How it was run: as §1
# [19] = molecular target: Neu5Ac(a2-3)Gal(b1-4)GlcNAc(b1-3)Gal(b1-4)[Fuc(a1-3)]GlcNAc
# How it was run: as §1
# [20] = molecular target: Neu5Ac(a2-3)Gal(b1-4)GlcNAc(b1-3)GalNAc
# How it was run: as §1
# [21] = molecular target: Neu5Ac(a2-3)Gal(b1-4)GlcNAc(b1-3)[Neu5Ac(a2-3)Gal(b1-4)GlcNAc(b1-6)]GalNAc
# How it was run: as §1
# [22] = molecular target: Neu5Ac(a2-3)Gal(b1-4)GlcNAc(b1-6)GalNAc
# How it was run: as §1
binder,measurement,setting,value
B1,glycan array binding signal (z-score),[1],-0.224
same,glycan array binding signal (z-score),[2],-0.244
same,glycan array binding signal (z-score),[3],-0.222
same,glycan array binding signal (z-score),[4],-0.231
same,glycan array binding signal (z-score),[5],-0.223
same,glycan array binding signal (z-score),[6],-0.249
same,glycan array binding signal (z-score),[7],-0.235
same,glycan array binding signal (z-score),[8],-0.22
same,glycan array binding signal (z-score),[9],-0.242
same,glycan array binding signal (z-score),[10],-0.196
same,glycan array binding signal (z-score),[11],-0.232
same,glycan array binding signal (z-score),[12],-0.229
same,glycan array binding signal (z-score),[13],0.023
same,glycan array binding signal (z-score),[14],-0.23
same,glycan array binding signal (z-score),[15],0.166
same,glycan array binding signal (z-score),[16],-0.249
same,glycan array binding signal (z-score),[17],-0.172
same,glycan array binding signal (z-score),[18],-0.187
same,glycan array binding signal (z-score),[19],-0.226
same,glycan array binding signal (z-score),[20],-0.221
same,glycan array binding signal (z-score),[21],-0.235
same,glycan array binding signal (z-score),[22],-0.237
